Our source for the binding signal values is paper PMC7819943, “Rice protein-binding microarrays: a tool to detect cis-acting elements near promoter regions in rice”.

The other results are listed elsewhere or left out.

The assay has as its target T1, OsWOX13 (Oryza sativa, UniProt Q5QMM3 1-267).
T1 sequence: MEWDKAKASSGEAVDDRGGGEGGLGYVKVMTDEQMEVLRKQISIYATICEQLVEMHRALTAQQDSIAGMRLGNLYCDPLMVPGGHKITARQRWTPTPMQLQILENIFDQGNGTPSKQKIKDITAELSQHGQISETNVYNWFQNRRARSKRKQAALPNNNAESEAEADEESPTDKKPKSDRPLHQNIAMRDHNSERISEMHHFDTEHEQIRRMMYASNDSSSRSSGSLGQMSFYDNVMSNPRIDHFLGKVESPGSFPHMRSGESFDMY
The assay can be described thus: protein-binding microarray (RPBM); PBS, 2% BSA, 51.3 ng/ul salmon testes DNA, 50 uM zinc acetate, 200 nM TF, 25 C, 1 h; high values mean tight binding. The settings on record: protein: recombinant; tags: N-terminal polyhistidine and DsRed monomer fusion (pET32a); label: CyDye5-dUTP incorporated in the synthesized complementary strand; 3' TTTTT single-stranded linker to array surface; dsDNA, one strand shown. In short, it runs like this: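 Per-feature fluorescence intensity (arbitrary units), read on an Axon 4000B scanner, is the binding signal. Transcription factors carrying an N-terminal polyhistidine tag and DsRed fusion were expressed in E. coli BL21-CodonPlus and purified on Ni–NTA. A custom Agilent array, made double-stranded by primer extension with Cy5-dUTP and blocked with 2% BSA, was incubated with 200 nM protein in PBS, 2% BSA, salmon testes DNA and 50 µM zinc acetate at 25 °C for 1 h and then washed.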
As to “ATTGAATTCACAAACATTTTAATTGTTTGGTTAAGTGCATCGGAGTCACCTAGTGCAG”, the binding signal was 3520 fluorescence intensity (a.u.).

Take “CCGTACATAGGATGATTAGAGCAGGTACAATAGTAGCCTACGGAGTCACCTAGTGCAG”: the binding signal is 3460 fluorescence intensity (a.u.).

For “ACATAACTTAAAACAATCACGTTCTGAAACAAAATTTATTCGGAGTCACCTAGTGCAG”, the binding signal was 4010 fluorescence intensity (a.u.).

In the case of “GTGCCCTTCAATTTTATTTGATGAAATATCAAAACTCCCTCGGAGTCACCTAGTGCAG”, the binding signal is 3830 fluorescence intensity (a.u.).

For the sequence “ATATAATGGAATGGACTTCCATTGTCGAGGAAGTTACCACCGGAGTCACCTAGTGCAG”, the binding signal is 5080 fluorescence intensity (a.u.).

As for “ATAAATTTGTCACGTGCATAAGAAATTTCACGATCCAACACGGAGTCACCTAGTGCAG”, the binding signal is 4090 fluorescence intensity (a.u.).

Take “TCCTTAAACAAATCATGTGTTCTTTAATGCTTGGCAGAGTCGGAGTCACCTAGTGCAG”: the binding signal was 3310 fluorescence intensity (a.u.).

Take “TTTAGCATGATTTCTTATGTATTTACTAAATTTGGCAACACGGAGTCACCTAGTGCAG”: the binding signal was 4100 fluorescence intensity (a.u.).

As to “AAGTTGTATAATTATATTTATAGCACTACATTTCAATAAGCGGAGTCACCTAGTGCAG”, the binding signal was 5420 fluorescence intensity (a.u.).

With “ATTAAGATTGATTAATTGTTGCTTGGTTAATAGCCACTTACGGAGTCACCTAGTGCAG”, the binding signal was 47500 fluorescence intensity (a.u.).

As for “ATCCAATTAACCCCTAAAATAAAATGGGAGAGGATTCTAACGGAGTCACCTAGTGCAG”, the binding signal is 6150 fluorescence intensity (a.u.).

On to “ATCACCGGTATAATTATACAGTATACATGGACAAGTAACGCGGAGTCACCTAGTGCAG”, for which the binding signal is 3940 fluorescence intensity (a.u.).

On to “TTGAGCACTAATTAATCATTAGGTGGCCTAATCAACAGCTCGGAGTCACCTAGTGCAG”, for which the binding signal was 22000 fluorescence intensity (a.u.).

Turning to “CTGATTAATTGCCAGTAATTTGATTTCAACCTTACGTGTACGGAGTCACCTAGTGCAG”, the binding signal was 53000 fluorescence intensity (a.u.).

With “GCATTCAATTTATGGTCAATTCTATCCATCTATGACTTTACGGAGTCACCTAGTGCAG”, the binding signal is 7170 fluorescence intensity (a.u.).

Consider “CATAGATTAATATGAAATATATAACTCCACAAATATGCAACGGAGTCACCTAGTGCAG”, for which the binding signal was 9440 fluorescence intensity (a.u.).

For the sequence “AAGGAAAATTAATAGCATACAGGCATGCATTTACGTACTTCGGAGTCACCTAGTGCAG”, the binding signal was 5500 fluorescence intensity (a.u.).

Take “TGTGACTTAATCACGAAGAACTTCGACGTGAATGGCCAATCGGAGTCACCTAGTGCAG”: the binding signal was 3750 fluorescence intensity (a.u.).

Take “GTGATGAATTCATTAATTTTAAGATATATATGATGGCCAACGGAGTCACCTAGTGCAG”: the binding signal was 18200 fluorescence intensity (a.u.).

For “TGTGTCATGTTCTGATTGGCTGTGGTTGGTTTGATTTTCTCGGAGTCACCTAGTGCAG”, the binding signal was 21100 fluorescence intensity (a.u.).

As to “AAAATTAAGTGATTGATCAATAAGAATAAGTGAGTCAATTCGGAGTCACCTAGTGCAG”, the binding signal was 40400 fluorescence intensity (a.u.).

Regarding “GTCCTAGCTTTGTGATGATTAATTTAGAGGTGGTCAAGATCGGAGTCACCTAGTGCAG”, the binding signal is 3870 fluorescence intensity (a.u.).

For “ATCTTCTTGTTATTTGCATATTAATTAAATAACTATAAAACGGAGTCACCTAGTGCAG”, the binding signal was 4520 fluorescence intensity (a.u.).

As for “TCTCGTTGATAGCTTGATACATCTCTCTCGATTCGTAGAGCGGAGTCACCTAGTGCAG”, the binding signal is 4320 fluorescence intensity (a.u.).

On to “AGTAAATTAATGTGATTTATGATAATTTAAATTTAAATAGCGGAGTCACCTAGTGCAG”, for which the binding signal was 50800 fluorescence intensity (a.u.).

Turning to “CCAAATTTGGCTTAAGATTTGTCCAGCTACAAGTTTGCTACGGAGTCACCTAGTGCAG”, the binding signal was 8110 fluorescence intensity (a.u.).

Regarding “CAAACTCACAATCAACGAACAGTTTTAAACGTAAATACGGCGGAGTCACCTAGTGCAG”, the binding signal was 4320 fluorescence intensity (a.u.).

As for “ACTCAACAGATTAACTTAAATATGAGCCTGTTGCTGACTGCGGAGTCACCTAGTGCAG”, the binding signal is 5980 fluorescence intensity (a.u.).

As for “TTCTGAGTGTATAATTAATGTTTATGTGGTCACGTACTTGCGGAGTCACCTAGTGCAG”, the binding signal is 4250 fluorescence intensity (a.u.).

On to “GGTGATGATGTAACTTAAATGTGATGGGTAATTATGTAACCGGAGTCACCTAGTGCAG”, for which the binding signal is 33100 fluorescence intensity (a.u.).

“GGTCTATTGATGGGTGAAAACTCTTACCCATTAGGTACGTCGGAGTCACCTAGTGCAG”: the binding signal is 7020 fluorescence intensity (a.u.).

For “ATTTAGTTCATTAATTGAATTGCCTAACAATTGACAAGGGCGGAGTCACCTAGTGCAG”, the binding signal is 20000 fluorescence intensity (a.u.).

With “CAAATCAATCCACTTGATGGGTGGGTCCACTTGCTACACACGGAGTCACCTAGTGCAG”, the binding signal was 14800 fluorescence intensity (a.u.).

As for “TAAAATTTGGAACTGAAATTTCTAACATTTCGGGTCCATCCGGAGTCACCTAGTGCAG”, the binding signal is 4680 fluorescence intensity (a.u.).

For “AAAATTTGGTCATTAATTTATCCTGATTTTCTGAGGTATTCGGAGTCACCTAGTGCAG”, the binding signal was 21800 fluorescence intensity (a.u.).

Regarding “AAAACTAATTTAGTATTATAAATATTACTATATTTGTCTACGGAGTCACCTAGTGCAG”, the binding signal was 26700 fluorescence intensity (a.u.).

Regarding “CCTCGCGAGCATGGCCATGATTGGAAGCGAGCATGGCCCCCGGAGTCACCTAGTGCAG”, the binding signal was 4890 fluorescence intensity (a.u.).

Take “TTAATTAATTGATCACTTCCAAATCATGTAGCAGTACTGTCGGAGTCACCTAGTGCAG”: the binding signal is 65400 fluorescence intensity (a.u.).

Take “ATTAATTAGATGAAGATTGTATTGCCTCAACCTTTATTTTCGGAGTCACCTAGTGCAG”: the binding signal is 45400 fluorescence intensity (a.u.).

With “GGATTAATTATACTTAATAAATTCGTATAACAGTTTACATCGGAGTCACCTAGTGCAG”, the binding signal was 5190 fluorescence intensity (a.u.).

Turning to “TTTTATTGATAGTATAGGTAAGACACGTTCAAATATGATACGGAGTCACCTAGTGCAG”, the binding signal is 3780 fluorescence intensity (a.u.).

Consider “AATCCCATGGCTAAAATTGGCTAATTATCCACACATTATCCGGAGTCACCTAGTGCAG”, for which the binding signal was 4320 fluorescence intensity (a.u.).
